We go through 97 variants from a collection of fitness landscapes (doi:10.1016/j.celrep.2020.107928).

Whole data set: some 81,000 sequences, median “one-hybrid fitness for binding NBS DNA” near -0.1, cut for the highest 2% near 0.36. The list shows a part of the results.

First the molecules themselves.
B1: Caulobacter ParB omega fusion; a variant is named by its letters at X, in order, B8GW30 (parent)
chain: MESVVVGEPGMSEGRRGLGRGLSALLGEVDAAPAQAPGEQLGGSREAPIEILQRNPDQPRRTFREEDLEDLSNSIREKGVLQPILVRPSPDTAGEYQIVAGERAWRAAQRAGLKTVPIMVRELDDLAVLEIGIIENVQRADLNVLEEALSYKVLMEKFERTQENIAQTIGKSXSHVANXMRLLXLPDEVQSYLVSGELTAXHARAIAAAADPVALAKQIIEGGLSVRETEALARKAPNLSAGKSKGGRPPRVKDTDTQALESDLSSVLGLDVSIDHRGSTGTLTITYATLEQLDDLCNRLTRGI

Variants of B1 are the subject of this experiment. Briefly: one-hybrid fitness for binding NBS DNA (the Noc-binding site; scaled: cognate 1, non-cognate 0); higher = stronger binding. Particulars: with NBS DNA site. The procedure, abridged: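 Caulobacter ParB libraries with four specificity codons randomised were screened by bacterial one-hybrid selection in the E. coli USO strain, using a HIS3 reporter whose site lies 19 bp from the promoter. Selection ran for 48 hours at 37°C on M9 lacking histidine, with 0.1 mM IPTG and 5 mM 3-AT. Plasmids were Illumina-sequenced before and after selection, three replicate libraries were pooled, and variants with under 10 reads were dropped. Fitness is the log change in each variant's read ratio to wild type, rescaled against the cognate and non-cognate sites.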
Consider CYIR, for which the “one-hybrid fitness for binding NBS DNA” value was at most 0.2.

For GNLD, the “one-hybrid fitness for binding NBS DNA” value is at most 0.2.

In the case of EGKG, the “one-hybrid fitness for binding NBS DNA” value is at most 0.2.

For the variant ATPT, the “one-hybrid fitness for binding NBS DNA” value was at most 0.2.

VRGH: the “one-hybrid fitness for binding NBS DNA” value is at most 0.2.

As for KFGW, the “one-hybrid fitness for binding NBS DNA” value was at most 0.2.

Take DGTL: the “one-hybrid fitness for binding NBS DNA” value is at most 0.2.

On to SQVR, for which the “one-hybrid fitness for binding NBS DNA” value was at most 0.2.

On to SYTD, for which the “one-hybrid fitness for binding NBS DNA” value is at most 0.2.

With ADLG, the “one-hybrid fitness for binding NBS DNA” value was at most 0.2.

On to LWAG, for which the “one-hybrid fitness for binding NBS DNA” value is at most 0.2.

Turning to ASCS, the “one-hybrid fitness for binding NBS DNA” value was at most 0.2.

For STCM, the “one-hybrid fitness for binding NBS DNA” value was at most 0.2.

Take VPAM: the “one-hybrid fitness for binding NBS DNA” value is at most 0.2.

On to ADVC, for which the “one-hybrid fitness for binding NBS DNA” value is at most 0.2.

As for HLKS, the “one-hybrid fitness for binding NBS DNA” value is at most 0.2.

Turning to VDSA, the “one-hybrid fitness for binding NBS DNA” value was at most 0.2.

As for HMPW, the “one-hybrid fitness for binding NBS DNA” value was at most 0.2.

In the case of WISR, the “one-hybrid fitness for binding NBS DNA” value was at most 0.2.

Turning to VTYT, the “one-hybrid fitness for binding NBS DNA” value was at most 0.2.

Consider AMPP, for which the “one-hybrid fitness for binding NBS DNA” value is at most 0.2.

Regarding MSHV, the “one-hybrid fitness for binding NBS DNA” value is at most 0.2.

In the case of EVLY, the “one-hybrid fitness for binding NBS DNA” value is at most 0.2.

For AAVV, the “one-hybrid fitness for binding NBS DNA” value is at most 0.2.

In the case of LFPI, the “one-hybrid fitness for binding NBS DNA” value is at most 0.2.

Turning to YERG, the “one-hybrid fitness for binding NBS DNA” value is at most 0.2.

Turning to AWCL, the “one-hybrid fitness for binding NBS DNA” value is at most 0.2.

Turning to QKAG, the “one-hybrid fitness for binding NBS DNA” value is at most 0.2.

With RMGH, the “one-hybrid fitness for binding NBS DNA” value is at most 0.2.

As for YWCL, the “one-hybrid fitness for binding NBS DNA” value is at most 0.2.

As for RLLW, the “one-hybrid fitness for binding NBS DNA” value is at most 0.2.

On to PSIS, for which the “one-hybrid fitness for binding NBS DNA” value was at most 0.2.

For NNGF, the “one-hybrid fitness for binding NBS DNA” value is at most 0.2.

Take DPTN: the “one-hybrid fitness for binding NBS DNA” value is at most 0.2.

For the variant GKCT, the “one-hybrid fitness for binding NBS DNA” value was at most 0.2.

Turning to KGWD, the “one-hybrid fitness for binding NBS DNA” value was at most 0.2.

QWGS: the “one-hybrid fitness for binding NBS DNA” value is at most 0.2.

With SPIV, the “one-hybrid fitness for binding NBS DNA” value was at most 0.2.

For the variant GHYY, the “one-hybrid fitness for binding NBS DNA” value was at most 0.2.

In the case of FGFG, the “one-hybrid fitness for binding NBS DNA” value is at most 0.2.

Turning to TNVP, the “one-hybrid fitness for binding NBS DNA” value is at most 0.2.

With ANRV, the “one-hybrid fitness for binding NBS DNA” value is at most 0.2.

On to RMSS, for which the “one-hybrid fitness for binding NBS DNA” value was 0.439.

Regarding GPIL, the “one-hybrid fitness for binding NBS DNA” value was at most 0.2.

Take QWRP: the “one-hybrid fitness for binding NBS DNA” value was at most 0.2.

For the variant KEDV, the “one-hybrid fitness for binding NBS DNA” value was at most 0.2.

As for TRAR, the “one-hybrid fitness for binding NBS DNA” value was 0.354.

Take QYCY: the “one-hybrid fitness for binding NBS DNA” value is at most 0.2.

Regarding WLMM, the “one-hybrid fitness for binding NBS DNA” value was at most 0.2.

On to RICS, for which the “one-hybrid fitness for binding NBS DNA” value was determined as 0.292.

With AKGT, the “one-hybrid fitness for binding NBS DNA” value is at most 0.2.

HRIA: the “one-hybrid fitness for binding NBS DNA” value is at most 0.2.

Turning to YSVL, the “one-hybrid fitness for binding NBS DNA” value was at most 0.2.

Consider TFCC, for which the “one-hybrid fitness for binding NBS DNA” value was at most 0.2.

With QTRM, the “one-hybrid fitness for binding NBS DNA” value was determined as 0.562.

As to PPSE, the “one-hybrid fitness for binding NBS DNA” value is at most 0.2.

Turning to YITS, the “one-hybrid fitness for binding NBS DNA” value is at most 0.2.

As to CLRA, the “one-hybrid fitness for binding NBS DNA” value was at most 0.2.

Take NLCR: the “one-hybrid fitness for binding NBS DNA” value is at most 0.2.

On to QEKK, for which the “one-hybrid fitness for binding NBS DNA” value is at most 0.2.

As to DYLL, the “one-hybrid fitness for binding NBS DNA” value is at most 0.2.

Consider LRKE, for which the “one-hybrid fitness for binding NBS DNA” value is at most 0.2.

Take TSYY: the “one-hybrid fitness for binding NBS DNA” value was at most 0.2.

In the case of GVER, the “one-hybrid fitness for binding NBS DNA” value was at most 0.2.

In the case of KGRF, the “one-hybrid fitness for binding NBS DNA” value is at most 0.2.

AWHS: the “one-hybrid fitness for binding NBS DNA” value was at most 0.2.

Turning to SRHN, the “one-hybrid fitness for binding NBS DNA” value was at most 0.2.

For QRIP, the “one-hybrid fitness for binding NBS DNA” value is at most 0.2.

Take SFQA: the “one-hybrid fitness for binding NBS DNA” value was at most 0.2.

Consider SSTI, for which the “one-hybrid fitness for binding NBS DNA” value is at most 0.2.

Turning to MSTY, the “one-hybrid fitness for binding NBS DNA” value was at most 0.2.

Take PRRH: the “one-hybrid fitness for binding NBS DNA” value was at most 0.2.

As for TENR, the “one-hybrid fitness for binding NBS DNA” value was at most 0.2.

Regarding RQTP, the “one-hybrid fitness for binding NBS DNA” value is at most 0.2.

Turning to YMRM, the “one-hybrid fitness for binding NBS DNA” value was at most 0.2.

For GTES, the “one-hybrid fitness for binding NBS DNA” value was at most 0.2.

For the variant RVTP, the “one-hybrid fitness for binding NBS DNA” value was at most 0.2.

In the case of SYAL, the “one-hybrid fitness for binding NBS DNA” value is at most 0.2.

Regarding NILV, the “one-hybrid fitness for binding NBS DNA” value is at most 0.2.

With FKPP, the “one-hybrid fitness for binding NBS DNA” value was at most 0.2.

In the case of RECK, the “one-hybrid fitness for binding NBS DNA” value is at most 0.2.

As for GISW, the “one-hybrid fitness for binding NBS DNA” value is at most 0.2.

As to RHAE, the “one-hybrid fitness for binding NBS DNA” value is at most 0.2.

As to RGAR, the “one-hybrid fitness for binding NBS DNA” value is at most 0.2.

Regarding RVMV, the “one-hybrid fitness for binding NBS DNA” value was at most 0.2.

On to HIFW, for which the “one-hybrid fitness for binding NBS DNA” value was at most 0.2.

For the variant STML, the “one-hybrid fitness for binding NBS DNA” value is at most 0.2.

Take VAFI: the “one-hybrid fitness for binding NBS DNA” value was at most 0.2.

As to RFLV, the “one-hybrid fitness for binding NBS DNA” value was at most 0.2.

With RAFM, the “one-hybrid fitness for binding NBS DNA” value is at most 0.2.

Regarding QMAP, the “one-hybrid fitness for binding NBS DNA” value was at most 0.2.

With SQSY, the “one-hybrid fitness for binding NBS DNA” value was at most 0.2.

With YHVC, the “one-hybrid fitness for binding NBS DNA” value is at most 0.2.

Take SVFW: the “one-hybrid fitness for binding NBS DNA” value is at most 0.2.

Regarding LRKL, the “one-hybrid fitness for binding NBS DNA” value is at most 0.2.

CRLD: the “one-hybrid fitness for binding NBS DNA” value was at most 0.2.

For KPLM, the “one-hybrid fitness for binding NBS DNA” value was at most 0.2.
